# According to patent US20170101664:
# Assays:
# [1] = target: biosensor SEQ ID NO:47 (KbiotinkkafpaayiaeG-photo-cleavable linker-…rrrqrrkkr)
# [2] = target: control peptide SEQ ID NO:53 (KbiotinkkafpaayiaeG-photo-cleavable linker-GCGGrrrqrrkkr)
protein,measurement,setting,value
Abl kinase (protein) EALQRPVASDFEPQGLSEAARWNSKENLLAGPSE[not shown - about 60 residues]LEKHSWYHGPVSRNAAEYLLSSGINGSFLVRESESSPGQRSISLRYEGRVYHYRINTASDGKLYVSSESRFNTLAELVHHHSTVADGLITTLHYPAPKRNKPTVYGVSPNYDKWEMERTDITMKHKLGGGQYGEVYEGVWKKYSLTVAVKTLKEDTMEVEEFLKEAAVMKEIKHPNLVQLLGVCTREPPFYIITEFMTYGNLLDYLRECNRQEVNAVVLLYMATQISSAMEYLEKKNFIHRDLAARNCLVGENHLVKVADFGLSRLMTGDTYTAHAGAKFPIKWTAPESLAYNKFSIKSDVWAFGVLLWEIATYGMSPYPGIDLSQVYELLEKDYRMERPEGCPEKVYELMRACWQWNPSDRPSFAEIHQAFETMFQESSISDEVEKELGKQGVRGAVSTLLQAPELPTKTRTSRRAAEHRDTTDVPEMPHSKGQGESDPLDHEPAVSPLLPRKERGPPEGGLNEDERLLPKDKKTNLFSALIKKKKKTAPTPPKRSSSFREMDGQPERRGAGEEEGRDISNGALAFTPLDTADPAKSPKPSNGAGVPNGALRESGGSGFRSPHLWKKSSTLTSSRLATGEEEGGGSSSKRFLRSCSASCVPHGAKDTEWRSVTLPRDLQSTGRQFDSSTFGGHKSEKPALPRKRAGENRSDQVTRGTVTPPPRLVKKNEEAADEVFKDIMESSPGSSPPNLTPKPLRRQVTVAPASGLPHKEEAGKGSALGTPAAAEPVTPTSKAGSGAPGGTSKGPAEESRVRRHKHSSESPGRDKGKLSRLKPAPPPPPAASAGKAGGKPSQSPSQEAAGEAVLGAKTKATSLVDAVNSDAAKPSQPGEGLKKPVLPATPKPQSAKPSGTPISPAPVPSTLPSASSALAGDQPSSTAFIPLISTRVSLRKTRQPPERIASGAITKGVVLDSTEALCLAISRNSEQMASHSAVLEAGKNLYTFCVSYVDSIQQMRNKFAFREAINKLENNLRELQICPATAGSGPAATQDFSKLLSSVKEISDIVQR,Km (michaelis-menton constant),[1],Km=7.5 µM
same,Vmax (michaelis-menton constant),[1],Vmax=849.5 pmol/mg·min
same,"phosphorylation in the in vitro kinase assay, detected by mass spectrometry",[1],"when the SH3 targeting sequence was present in the full-length, SEQ ID NO:47 was phosphorylated with reasonable efficiency"
same,"phosphorylation in the in vitro kinase assay, detected by mass spectrometry",[2],SEQ ID NO: 53 was not appreciably phosphorylated
